Our source for the self-cleavage values is the RNAGym collection of RNA variant scans (doi:10.7554/elife.90254).

B1: LINE1-mini (parent)
chain: GGCAGAGCUCAACACAGCGUGGCAAAGUGGCUGUGGCUAGACUGCC

Read counts are not given, so values of variants with three or more changes are uncertain.

The data set covers variants of B1. Put plainly: self-cleavage, relative activity (ratio to wild type); higher = more cleavage; in vitro, sequencing; the parent is a self-cleaving ribozyme.
Turning to G2U A11C G27U C37A, the self-cleavage is 0.01.

Regarding G2C G40A G44A, the self-cleavage turned out to be 0.02. On to G2U A12U U32G C45G, for which the self-cleavage is 0.01.

As to G2U A24G A41U, the self-cleavage is 0.08. Then G2U C8A G21A, with 0.21. Then G2U C3A A4G A12C C15A G40C, with 0.01; and G2U A6U U20C, with 0.05. Then G2C U34C C45U, with 0.06. Regarding G2U C3G G7U, the self-cleavage is 0.4. As for G2C U9C U34C, the self-cleavage came to 0.1.

For the variant G2U A41C C45G, the self-cleavage came out at 0.08. Then G2C U9C C23A G27A A41C, with 0.03. For the variant G2C U9G A16C G17C U38G, the self-cleavage turned out to be 0.45. Then G2U A4G C18G, with 0.06. Then G2C U20G G22A U28G C37U C45G, with 0.03; and G2U C8G G36U, with 0.05; and G2U C8A A24U G40A, with 0.41. With G2C G29C G36A, the self-cleavage came to 0.02. For the variant G2U A11U A14G G40C U43G, the self-cleavage turned out to be 0.01. Then G2U A12C C31U, with 0; and G2U A6G G21A G27A, with 0.25; and G2C U9G G19U, with 0.01.

In the case of G2U C3G A24C U32G, the self-cleavage worked out at 0.01. Then G2U C3G C13A C37A, with 0.02; and G2U A14C C15A G36U, with 0.04. Regarding G2U A6G G27U C37G, the self-cleavage worked out at 0.01. As for G2U A26G U34C C37G, the self-cleavage stood at 0.04.

On to G2C G36C G40U, for which the self-cleavage amounted to 0.02. Then G2U C8A A24U C31U C37A, with 0.05; and G2U C8A U20C G21U, with 0; and G2U A4U A16U, with 0.08.

In the case of G2U C8A A11G C13A C45A, the self-cleavage came out at 0. Regarding G2U A4G G17U A26C C31U G36U C37A A39G A41U, the self-cleavage turned out to be 0.05.

Regarding G2U A6C C13U, the self-cleavage was 0.08. Then G2U C3A G22U G29U, with 0.91; and G2U A12G C15G A16C, with 0.08. Then G2U C3A C18A G35C, with 0.04; and G2C U9C A12U A14U, with 0.02. Then G2C G30A U34C, with 0.04. Consider G2U C8A A11U G27C, for which the self-cleavage amounted to 0.02.

In the case of G2U A16U G19U U20A G29U, the self-cleavage is 0.05. Then G2C G36U A41C, with 0.12.

G2U A16G A26C C37A: the self-cleavage amounted to 0.18.

As for G2U C8A C13G C23A A24U, the self-cleavage amounted to 0.01.

For G2U A11G G21U, the self-cleavage is 0. Then G2U A6G A24U G44A, with 0.02; and G2U A41U G44A, with 0.21; and G2U A4G G21U A24U G36C, with 0.21. Then G2U A4G G17A G19U G33A A41G, with 0.13. Then G2U C8G C15G C23G G27A U32A U34A, with 0.02. Consider G2U A12G G33A G36U, for which the self-cleavage was determined as 0. Then G2U A12C U20A, with 0. Turning to G2C U32A C37A, the self-cleavage amounted to 0.03.

For G2U C8U A14U, the self-cleavage worked out at 0.05.

Consider G2C G30A C31U C42A, for which the self-cleavage worked out at 0.7.

G2U A14U G36U A41C G44A: the self-cleavage amounted to 0. Then G2U A6U C8U G19A G22C G27A C31G C42A, with 0.01; and G2C U9A G22U C37U, with 0.13.

Regarding G2U C8A A11U, the self-cleavage amounted to 0.03.

As for G2U A14U G17C C37A A39G A41G, the self-cleavage came to 0.03. Then G2U C8U A11C G17C A25C G29A G36C G40A, with 0.

For the variant G2U A16U G19A G44C C45A, the self-cleavage was 0.01.

As to G2U A11G G30U U38A A39C, the self-cleavage was found to be 0. Regarding G2U C3G G5A U9C G30A U32G G33U, the self-cleavage stood at 0.03. G2U A12G G35U G40A U43C G44A: the self-cleavage was 0.01. Then G2U A12C G17U G44U, with 0.01; and G2U A41U C42U, with 0.04.

With G2U A41U C42A, the self-cleavage is 0.01. Then G2C U28C C31U A41U, with 0.04; and G2U C8U G17A G44A, with 0.12; and G2U A4G G19A U34G, with 0.08. Then G2C U20C G29A U38A A41G, with 0.02; and G2U A6G G30U C45G, with 0.08. Then G2U A26C G29A G35A, with 0.05; and G2C G40C C46G, with 0.17; and G2U C3U A26G, with 1.27.

Turning to G2U C3A A25G G29U, the self-cleavage is 1.71. Then G2C G36A C42G, with 0.03; and G2U A12G U20A C23A, with 0.03. Then G2U A12C C37A, with 0.02; and G2U C3A A12G C13U C46A, with 0.01; and G2U A6C C31G G36U C45G, with 0.01. Then G2U C3G G19A, with 0.2. G2C U9C C18U: the self-cleavage is 0.07.

For the variant G2U A16G G19A C23A U43C C46U, the self-cleavage is 0.11. Then G2U A12U G36U, with 0.24. Then G2U C8U A25C C31U C46G, with 0.03. Then G2U A4G C8G U28G, with 0.03; and G2U A11G G17A, with 0. For the variant G2C U9A A14G G33C C45G, the self-cleavage came out at 0.02. Then G2U A12G G17A G22C, with 0.05; and G2U A16U G19A C45G, with 0.03; and G2U C3A G7A C23G A26C G40U, with 0.1. Then G2U C3U G19A C31G, with 0.11; and G2U A25G C31U G33U G40U, with 0.04; and G2U A4U A11U C18G, with 0. As to G2U A24G C31G, the self-cleavage was found to be 0.03.

Take G2U A4C G5A G22C U32G G33U G36A: the self-cleavage worked out at 0.02.

Turning to G2C G27U U38A C46U, the self-cleavage was 0.11. Then G2U A11G A16U C18A, with 0.01; and G2U C3G U9A U28A G40U, with 0.27. As for G2U A26U U28G C42A, the self-cleavage is 0. Then G2U A4G G7U, with 0.1. Then G2U A12U C23G A24C, with 0.1; and G2C U9C U28C, with 0.03; and G2U A14G C45G, with 0.24. Then G2C U9G U20C C37A, with 0.19. As to G2U A39G C42G, the self-cleavage turned out to be 0.04. Then G2U C3A C18A U20C A39C A41C, with 0.03; and G2U C3U U9C A14C, with 0.04. In the case of G2U A12G G22U, the self-cleavage worked out at 0.03.

Turning to G2C U28G C42U, the self-cleavage stood at 0.02. Turning to G2U A4C C31A A39U, the self-cleavage worked out at 0.05. For G2U A11G C15A G22C G30U, the self-cleavage was 0.01.

On to G2U A25U U43A, for which the self-cleavage worked out at 0.07.

Consider G2U A14G G27A U38A, for which the self-cleavage came out at 0.03. Then G2C G35C C37U A41G, with 0.08; and G2U C8A A41G, with 0.06. As for G2C U9A C10U, the self-cleavage was 0. Then G2U A11U G27C G40U, with 0.01; and G2U A16U G17U G27A, with 0.06; and G2C G27U U38C, with 0.03. Then G2U A12U U20A, with 0.05; and G2U A11G C45U, with 0.01; and G2U C3G G36C U43A, with 0.24. Turning to G2C U9A U32G G36U, the self-cleavage amounted to 0.06. Then G2U A16U C37U C45U, with 0.07. Then G2C G36A G40C, with 0.21; and G2C U9C G22A C23A C37U, with 0.01; and G2U A14U U38A A39G C46G, with 0.01. As for G2U A24C A25U U28G G30U, the self-cleavage was determined as 0.03. Then G2U A12C C18A G29A C31G, with 0; and G2U A14C G19C A41G, with 0.02.

Take G2U C3U G17C G27C G30C C31G G35A A39G: the self-cleavage was determined as 0.01. Then G2U C8A C15A G33A, with 0.12; and G2C U32G G33U, with 0.11. For the variant G2U A6G U32C U43C, the self-cleavage turned out to be 0.03.

For the variant G2U A4G C8U G19C G22C U28C U32C U43G, the self-cleavage worked out at 0.03. Then G2U A6G C13A G44A, with 0. Then G2U C3G C13A A14C G22C, with 0.04. Then G2U C3A G7U A16C U32A, with 0.08; and G2U A4U G7A U43C, with 0.08; and G2U A6U A14C G22U, with 0.02.

With G2U A16U G22A, the self-cleavage was found to be 0.01.

In the case of G2U A41G C42G C46G, the self-cleavage came out at 0.01. For the variant G2U C3A A12U C13G C31U, the self-cleavage turned out to be 0.08. Then G2C U9G A12G G19C A25C U38G, with 0.03. Then G2U A26G G33C U34A G36U C45U, with 0.02; and G2U C3U G17C U20A C23A G33U G36A C42G, with 0.01; and G2U C3G A4G G5A A11U, with 0.02. Then G2U C3A G33C U43A, with 0.04; and G2C U32G U34G, with 0.3; and G2C U20G G29A C42G, with 0. G2U A16U A25C C46G: the self-cleavage worked out at 0.01. Then G2U A12G U20G G27U U28C G35U, with 0; and G2C U20G G21C G33A, with 0.02. Then G2C G30C U43C, with 0.09; and G2U A4U C15G A24C U34C U43C, with 0. Then G2C G44A C46A, with 0.1; and G2C U20G C31G U32C C46U, with 0.03; and G2U A14C U34G, with 0.05. In the case of G2U A16U G21U C42U, the self-cleavage came out at 0.03. Then G2C U20G A24U U34A, with 0.02; and G2U C3G A4U G44U, with 0.4. Then G2U C8U G21A, with 0.18; and G2U A6C A12C G17U, with 0.02; and G2U A6G U9C A12U G21A C46G, with 0.01.
